Reference: the antibiotic and cytotoxicity screens of Wong et al. (2023)
The other results are listed elsewhere or left out.

Each compound was assayed on HSkMC (human skeletal muscle cells) (assay: cytotoxicity call (relative viability < 0.9)). Conditions: 10 µM.

Structure (SMILES)	cytotoxicity call
O=C(c1cccnc1)N1C[C@H]2[C@@H](c3ccccc31)[C@H](CO)N2C(=O)CN1CCOCC1	inactive
NS(=O)(=O)c1cc2c(cc1C(F)(F)F)NC(Cc1ccccc1)NS2(=O)=O (centres undefined)	inactive
COc1cc(C2c3cc4c(cc3C(OC3OC5COC(c6cccs6)OC5C(O)C3O)C3COC(=O)C23)OCO4)cc(OC)c1O (centres undefined)	inactive
C[C@@H]1CN([C@@H](C)CO)C(=O)c2cccc(NC(=O)c3nc4ccccc4s3)c2O[C@H]1CN(C)C(=O)Nc1ccc(F)cc1	inactive
O=C(C[C@@H]1CC[C@@H]2[C@H](COC[C@H](O)CN2S(=O)(=O)c2ccc(Cl)cc2)O1)NCC1CCCCC1	inactive
[N-]=[N+]=Nc1ccccc1[C@@H]1OC(c2ccc(OCCCO)cc2)=N[C@]1(CCS(=O)(=O)c1ccccc1)C(=O)NCc1ccccc1	inactive
C[C@@H]1O[C@@H](O[C@H]2[C@H](Oc3cc(O)c4c(c3)O[C@H](c3ccc(O)cc3)CC4=O)O[C@H](CO)[C@@H](O)[C@@H]2O)[C@H](O)[C@H](O)[C@H]1O	inactive
C[C@@H]1[C@@H]([Si](C)(C)F)[C@H](CCO)O[C@@]12C(=O)N(Cc1ccccc1)c1ccc(N(C=O)c3ccccc3)cc12	inactive
C[C@H](CO)N1C[C@H](C)[C@H](CN(C)C(=O)Nc2cccc3ccccc23)OCCCC[C@H](C)Oc2ccc(NS(C)(=O)=O)cc2C1=O	inactive
C[C@@H]1CN([C@@H](C)CO)C(=O)Cc2cc(NC(=O)c3ccncc3)ccc2O[C@H]1CN(C)S(=O)(=O)c1cccs1	inactive
CC(=O)C1CCN(C(C)=O)CC1	inactive
CC(C)(C)OC(=O)C[C@H]1CC=CC[C@@H](CC(=O)N[C@H](CO)Cc2ccccc2)C(=O)N2CCC[C@@H]2COC1=O	inactive
C[C@@H]1CN([C@H](C)CO)C(=O)c2cccc(NC(=O)Nc3ccc(C(F)(F)F)cc3)c2O[C@@H]1CN(C)Cc1ccncc1	inactive
COc1ccc(S(=O)(=O)N(C)C[C@@H]2Oc3ccc(NS(=O)(=O)c4cccs4)cc3CC(=O)N([C@H](C)CO)C[C@H]2C)cc1	inactive
COCC(=O)N(C)C[C@H]1Oc2cc(C#Cc3cccnc3)ccc2S(=O)(=O)N([C@@H](C)CO)C[C@@H]1C	inactive
C[C@@H]1CN(C)S(=O)(=O)CCO1	inactive
C[C@@H]1CN([C@H](C)CO)C(=O)c2cc(N(C)C)ccc2O[C@@H](C)CCCCO[C@@H]1CN(C)C(=O)Nc1cccc2ccccc12	inactive
Cc1noc(C)c1NC(=O)N(C)C[C@@H]1OCCCC[C@@H](C)Oc2ccc(NC(=O)C3CCCCC3)cc2C(=O)N([C@@H](C)CO)C[C@H]1C	inactive
C[C@H](CO)N1C[C@H](C)[C@H](CN(C)S(=O)(=O)c2cn(C)cn2)Oc2ccc(NC(=O)CCC(F)(F)F)cc2C1=O	inactive

These compounds were tested on HepG2 (assay: cytotoxicity call (relative viability < 0.9)). Conditions: 10 µM.

Structure (SMILES)	cytotoxicity call
COc1ccc(S(=O)(=O)Nc2ccc3c(c2)CC(=O)N([C@@H](C)CO)C[C@H](C)[C@@H](CN(C)CC2CC2)O3)cc1	inactive
Cc1ccc(S(=O)(=O)Nc2ccc3c(c2)C(=O)N([C@@H](C)CO)C[C@@H](C)[C@@H](CN(C)Cc2ccc(Oc4ccccc4)cc2)O3)cc1	active
C[C@H](CO)N1C[C@H](C)[C@@H](CN(C)Cc2ccc(C(=O)O)cc2)Oc2ccc(NC(=O)Nc3ccc(C(F)(F)F)cc3)cc2CC1=O	inactive
C[C@H](CO)N1C[C@H](C)[C@@H](CN(C)S(C)(=O)=O)OCCCC[C@H](C)Oc2ccc(NS(=O)(=O)c3ccc(F)cc3)cc2C1=O	inactive
C=CCNC(=O)[C@H]1[C@@H]2C(=O)O[C@@H](c3ccccc3)[C@@H](c3ccccc3)N2[C@@H](c2ccc(O)cc2)[C@]12C(=O)N(C(=O)OCCOC)c1ccc(C#Cc3ccc(OC)cc3)cc12	inactive
C[C@@H]1CN([C@H](C)CO)C(=O)Cc2cc(NC(=O)Nc3cccc4ccccc34)ccc2O[C@H]1CN(C)Cc1ccc(Oc2ccccc2)cc1	inactive
COc1ccc(NC(=O)N(C)C[C@@H]2Oc3ccc(NC(=O)C4CC4)cc3C(=O)N([C@H](C)CO)C[C@@H]2C)cc1	inactive
CN1C(=O)c2cc(NC(=O)c3cccs3)ccc2OC[C@H]2O[C@@H](CC(=O)NCCN3CCCCC3)CC[C@H]21	inactive
COc1ccc(S(=O)(=O)N(C)C[C@@H]2Oc3c(NC(=O)Nc4cccc5ccccc45)cccc3C(=O)N([C@@H](C)CO)C[C@@H]2C)cc1	inactive
COc1ccc(S(=O)(=O)Nc2cccc3c2O[C@@H](CN(C)S(=O)(=O)c2ccc(F)cc2)[C@@H](C)CN([C@H](C)CO)C3=O)cc1	inactive
C[C@H]1CCCCO[C@H](CN(C)C(=O)Nc2ccc(F)cc2)[C@@H](C)CN([C@@H](C)CO)C(=O)c2cc(NC(=O)Cc3ccccc3)ccc2O1	inactive
C[C@@H]1CN([C@H](C)CO)C(=O)c2cc(N(C)C)ccc2O[C@@H]1CN(C)S(=O)(=O)c1ccc(Cl)cc1	inactive
COc1ccc(CN(C)C[C@@H]2OCCCC[C@H](C)Oc3ccc(NS(=O)(=O)c4ccc(Cl)cc4)cc3C(=O)N([C@@H](C)CO)C[C@H]2C)cc1	active
O=C(C[C@@H]1CC[C@@H]2[C@H](COC[C@H](O)CN2S(=O)(=O)c2cccc(F)c2)O1)NCc1ccc2c(c1)OCO2	inactive
C[C@H]1CN([C@@H](C)CO)C(=O)Cc2cc(NC(=O)CCCCCC(=O)Nc3ccccc3N)ccc2O[C@@H]1CN(C)C(=O)Nc1ccc(C(F)(F)F)cc1	inactive
COC(=O)CC1C(C)(C)C(=O)C2CC3C4=CC(=O)OC(c5ccoc5)C4(C)CCC3C1(C)C2=O (centres undefined)	inactive
CCCNC(=O)N(C)C[C@@H]1Oc2ncc(-c3ccc(C(=O)N(C)C)cc3)cc2C(=O)N([C@@H](C)CO)C[C@H]1C	inactive
C[C@@H](O)Cn1c(=N)n(C)c2ccccc21	inactive
Cc1ccc(C(C)C)c(O)c1	inactive
COc1ccc(NC(=O)Nc2cccc3c2O[C@@H](CN(C)Cc2ccc(C(=O)Nc4ccccc4N)cc2)[C@@H](C)CN([C@@H](C)CO)C3=O)cc1	inactive

Structure (SMILES)	cytotoxicity call
C[C@@H]1CN([C@H](C)CO)C(=O)c2cc(NC(=O)Cn3cnnn3)ccc2O[C@H]1CN(C)Cc1ccc(-c2ccccc2)cc1	inactive
O=C(c1cccnc1)N1C[C@H]2[C@@H](c3ccccc31)[C@H](CO)N2C(=O)CN1CCOCC1	inactive
NS(=O)(=O)c1cc2c(cc1C(F)(F)F)NC(Cc1ccccc1)NS2(=O)=O (centres undefined)	inactive
COc1cc(C2c3cc4c(cc3C(OC3OC5COC(c6cccs6)OC5C(O)C3O)C3COC(=O)C23)OCO4)cc(OC)c1O (centres undefined)	active
C[C@@H]1CN([C@@H](C)CO)C(=O)c2cccc(NC(=O)c3nc4ccccc4s3)c2O[C@H]1CN(C)C(=O)Nc1ccc(F)cc1	inactive
O=C(C[C@@H]1CC[C@@H]2[C@H](COC[C@H](O)CN2S(=O)(=O)c2ccc(Cl)cc2)O1)NCC1CCCCC1	inactive
[N-]=[N+]=Nc1ccccc1[C@@H]1OC(c2ccc(OCCCO)cc2)=N[C@]1(CCS(=O)(=O)c1ccccc1)C(=O)NCc1ccccc1	inactive
C[C@@H]1O[C@@H](O[C@H]2[C@H](Oc3cc(O)c4c(c3)O[C@H](c3ccc(O)cc3)CC4=O)O[C@H](CO)[C@@H](O)[C@@H]2O)[C@H](O)[C@H](O)[C@H]1O	inactive
C[C@@H]1[C@@H]([Si](C)(C)F)[C@H](CCO)O[C@@]12C(=O)N(Cc1ccccc1)c1ccc(N(C=O)c3ccccc3)cc12	inactive
C[C@H](CO)N1C[C@H](C)[C@H](CN(C)C(=O)Nc2cccc3ccccc23)OCCCC[C@H](C)Oc2ccc(NS(C)(=O)=O)cc2C1=O	inactive
C[C@@H]1CN([C@@H](C)CO)C(=O)Cc2cc(NC(=O)c3ccncc3)ccc2O[C@H]1CN(C)S(=O)(=O)c1cccs1	inactive
CC(=O)C1CCN(C(C)=O)CC1	inactive
CC(C)(C)OC(=O)C[C@H]1CC=CC[C@@H](CC(=O)N[C@H](CO)Cc2ccccc2)C(=O)N2CCC[C@@H]2COC1=O	inactive
C[C@@H]1CN([C@H](C)CO)C(=O)c2cccc(NC(=O)Nc3ccc(C(F)(F)F)cc3)c2O[C@@H]1CN(C)Cc1ccncc1	inactive
COc1ccc(S(=O)(=O)N(C)C[C@@H]2Oc3ccc(NS(=O)(=O)c4cccs4)cc3CC(=O)N([C@H](C)CO)C[C@H]2C)cc1	inactive
COCC(=O)N(C)C[C@H]1Oc2cc(C#Cc3cccnc3)ccc2S(=O)(=O)N([C@@H](C)CO)C[C@@H]1C	inactive
C[C@@H]1CN(C)S(=O)(=O)CCO1	inactive
C[C@@H]1CN([C@H](C)CO)C(=O)c2cc(N(C)C)ccc2O[C@@H](C)CCCCO[C@@H]1CN(C)C(=O)Nc1cccc2ccccc12	inactive
Cc1noc(C)c1NC(=O)N(C)C[C@@H]1OCCCC[C@@H](C)Oc2ccc(NC(=O)C3CCCCC3)cc2C(=O)N([C@@H](C)CO)C[C@H]1C	inactive
C[C@H](CO)N1C[C@H](C)[C@H](CN(C)S(=O)(=O)c2cn(C)cn2)Oc2ccc(NC(=O)CCC(F)(F)F)cc2C1=O	inactive
